Assay [1] concerns the target T1, prototypic SARS-CoV-2 RBD ([…]) with C-terminal His tag (SARS-CoV-2 (prototypic strain)).
In assay [2] the target is T1, prototypic SARS-CoV-2 RBD ([…]) with …. This is another data set of the same source.
The target is the same in assay [3]. The source holds these as a separate data set.
The target is the same in assay [4]. The source holds these as a separate data set.

Where two headings read alike, the source gives them in different places.

B1: Nanosota-4A-Fc (Fc fusion)
chain: QVQLQESGGGLVQPGGSLRLSCAASGFTLDYYAIGWFRQAPGKEREGVSCISSSGGRTNYADSVKGRFTISRDNTKNTVYLQMNSLKPEDTAVYYCAAWEASRWYCPLQFSADFSSWGQGTQVTVSS[human IgG1 Fc omitted here]
As a reminder, the Kd is a measure of binding affinity in units of concentration. Lower therefore signals a tighter complex. Usually koff stands for the first-order rate constant of dissociation. The low end stands for a long-lived complex, the high end for a short-lived complex. In general, kon refers to the second-order rate constant of association. Turning to B1, the affinity in assay [1], expressed as Kd, was 0.184 nM. In assay [2], this molecule yielded an off-rate (koff) of 3.44e-05 s⁻¹ and a kon of 187000 M⁻¹ s⁻¹.

B2: Nanosota-3A-Fc (Fc fusion)
chain: QVQLQESGGGLVQAGGSLRLSCAASGSIFSPNTMGWFRQALGKQREMVAVISSIASTQYANFVKGRFTITRDNTKNTVHLQMNSLIPEDTAVYYCYAVDKSQDYWGQGTQVTVSS[human IgG1 Fc omitted here]
Regarding B2, the Kd in assay [1] turned out to be 4.55 nM. In assay [3], this molecule came in with a dissociation rate constant (koff) of 0.00123 s⁻¹ and an on-rate (kon) of 270000 M⁻¹ s⁻¹.

B3: Nanosota-2A-Fc (Fc fusion)
chain: QVQLQESGGGAVQPGGSLGLSCTASGFNFETSTVGWFRQAPGKENEGVSCINKGYEDTNYADSVKGRFTISRDAAKNTVYLQMDSLQPEDTATYYCAAHNEPYFCDYSGRFRWNEYSYYGQGTQVTVSS[human IgG1 Fc omitted here]
B3: the Kd in assay [1] turned out to be 0.527 nM. Besides, in assay [4], the off-rate (koff) was determined as 0.00228 s⁻¹ and the on-rate (kon) amounted to 4.32e+06 M⁻¹ s⁻¹.

(Values after US20250109186A1 (REGENTS OF THE UNIVERSITY OF MINNESOTA, published 2025).)
